Assay results published in article PMC4336329 (PLoS ONE, 2015).
The whole screen tested about 310,000 compounds, of which about 2,200 (0.71%) showed an effect of 50% or more. The effect is printed as a negative number. The list shows a part of the results.

Target: human ether-à-go-go-related gene (hERG) potassium channel (human, UniProt Q12809)
Assay: primary screen, population patch clamp on CHO cells stably expressing hERG

Chain of human ether-à-go-go-related gene (hERG) potassium channel (Q12809 whole entry, looked up): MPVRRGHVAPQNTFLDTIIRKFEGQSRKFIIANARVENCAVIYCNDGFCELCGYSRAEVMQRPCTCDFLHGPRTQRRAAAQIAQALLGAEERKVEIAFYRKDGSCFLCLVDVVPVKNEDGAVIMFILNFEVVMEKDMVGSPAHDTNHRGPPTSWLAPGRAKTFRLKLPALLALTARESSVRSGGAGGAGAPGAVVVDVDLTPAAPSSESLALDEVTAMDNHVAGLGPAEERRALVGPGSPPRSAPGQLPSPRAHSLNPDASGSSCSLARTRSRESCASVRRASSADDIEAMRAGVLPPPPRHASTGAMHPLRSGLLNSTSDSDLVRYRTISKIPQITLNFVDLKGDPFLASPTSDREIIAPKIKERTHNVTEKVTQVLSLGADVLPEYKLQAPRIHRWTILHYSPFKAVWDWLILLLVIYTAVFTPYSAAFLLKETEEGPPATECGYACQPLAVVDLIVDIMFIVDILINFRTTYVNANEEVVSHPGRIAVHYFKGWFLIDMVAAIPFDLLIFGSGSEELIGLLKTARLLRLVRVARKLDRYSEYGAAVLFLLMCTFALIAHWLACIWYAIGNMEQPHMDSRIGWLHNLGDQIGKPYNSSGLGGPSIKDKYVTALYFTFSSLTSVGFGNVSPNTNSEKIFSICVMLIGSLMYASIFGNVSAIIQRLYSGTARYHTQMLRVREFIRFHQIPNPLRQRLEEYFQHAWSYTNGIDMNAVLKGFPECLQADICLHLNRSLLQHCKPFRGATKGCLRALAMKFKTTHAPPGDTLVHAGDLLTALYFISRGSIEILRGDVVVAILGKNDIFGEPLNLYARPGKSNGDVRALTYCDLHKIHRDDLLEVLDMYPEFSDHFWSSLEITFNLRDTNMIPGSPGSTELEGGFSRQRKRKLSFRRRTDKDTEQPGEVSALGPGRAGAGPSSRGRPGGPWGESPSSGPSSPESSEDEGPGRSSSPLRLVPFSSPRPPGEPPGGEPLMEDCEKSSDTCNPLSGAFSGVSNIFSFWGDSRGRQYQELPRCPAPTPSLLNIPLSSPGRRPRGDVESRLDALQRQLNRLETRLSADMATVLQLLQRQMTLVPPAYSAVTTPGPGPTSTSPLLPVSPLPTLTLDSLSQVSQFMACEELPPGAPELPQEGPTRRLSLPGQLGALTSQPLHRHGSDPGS

SMILES	hERG current change (%, negative = inhibition) at 1uM
Cc1cccc(NC(=O)C2CCN(S(=O)(=O)c3cccs3)CC2)n1	2.08%
CCc1ccc(NC(=S)Nc2ccc(S(=O)(=O)Nc3ncccn3)cc2)cc1	8.81%
COc1cccc(C(=O)Nn2c(C)nnc2-n2nc(C)cc2C)c1	-12.6%
Cc1ccc(NC2=C(Cl)C(=O)OC2NC(=O)c2ccccc2)cc1 (centres unmarked)	17%
CCNC(=O)N1c2ccc(OC)cc2C(C)=CC1(C)C	18.4%
COC(C)(C)c1cc(C(C)(C)C)nc(N)n1	14.8%
CCCc1cc(C(=O)N(C2CCCCC2)C2CCCCC2)no1	13.3%
COc1ccccc1NC(=O)C1=C(C)Nc2nc(CCCO)nn2C1c1cccnc1 (centres unmarked)	6.16%
CC(=O)Nc1cccc(/C(C)=N/NC(N)=S)c1	10.3%
Fc1ccc(CNCc2ccc(Br)cc2)cc1	7.11%
COc1ccc(OC)c(CNc2ccc([N+](=O)[O-])cc2C)c1	5.54%
CC(Nc1nc2ccccc2n2cnnc12)c1ccccc1 (centres unmarked)	-1.54%
CCOCCCNC(=O)C1CC(=O)N(C2CCCC2)C1 (centres unmarked)	7.51%
COc1ccc2oc(=Nc3cc(F)ccc3F)c(C(N)=O)cc2c1	-4.13%
CCn1c(/C=C/c2ccccc2C)nc2ccccc2c1=O	3.63%
O=C(Nc1ccc(-c2nc3ncccc3o2)cc1)c1ccc([N+](=O)[O-])o1	11.6%
CCN1C(=O)NC(=O)/C(=C/c2cc(C)n(-c3sc(C)c(C)c3C#N)c2C)C1=O	14.3%
COc1ccc(OCC(=O)NNC(=S)NC(=O)C2CCCCC2)cc1	10.3%
COc1ccc(NC(=O)CSc2nc(O)cc(=O)n2-c2ccccc2)cc1	9.1%
CN(c1ccccc1)c1nc(N)c([N+](=O)[O-])c(N2CCCC2)n1	8.02%
CCCC(C)NC(=O)C1c2ccccc2Oc2ccccc21 (centres unmarked)	17.4%
CC(=O)n1c2ccccc2c2ccccc21	14.4%
COc1ccc(-c2cc(C)no2)cc1S(=O)(=O)Nc1ccccc1	14.3%

SMILES	hERG current change (%, negative = inhibition) at 1uM
Cc1ccc(CSCC(=O)Nc2c(C)n(C)n(-c3ccccc3)c2=O)cc1	25.2%
COc1ccccc1Nc1nc(Cl)c(C=O)s1	7.66%
CCc1ccc(S(=O)(=O)NCCc2cn3ccccc3n2)s1	-2.2%
CCOc1ccc(S(=O)(=O)NCc2cccnc2)cc1	22%
O=c1ccc2cc(S(=O)(=O)Nc3ccc(F)cc3)ccc2o1	2.47%
COc1cc(C(=O)Nc2ccc3c(c2)nc(C)n3C)cc(OC)c1OC	17.5%
O=C(Cn1ccc([N+](=O)[O-])n1)N1CCCc2ccccc21	4.59%
CC1(C)CC(NC(=O)C2CCCCC2)CC(C)(C)N1	10.6%
COc1ccc(-c2[nH]c(-c3ccc(C)cc3)nc2SCC(=O)NCc2ccco2)cc1OC	14.5%
COC(=O)c1ccc2c(=O)n(CC3CCCO3)c(SCC(=O)Nc3ccccc3Cl)nc2c1 (centres unmarked)	7.25%
CC(C)Cc1nnc(NC(=O)c2ccc([N+](=O)[O-])cc2)s1	13%
Cc1ccnc(NS(=O)(=O)c2ccc(C(C)(C)C)cc2)c1	9.24%
Cc1cc(N2CCN(c3ccc([N+](=O)[O-])c4cccnc34)CC2)c2ccccc2n1	-13.9%
Cc1ccc(C(=O)Nc2ccc(S(=O)(=O)N3CCOCC3)cc2)cc1	19.3%
Nn1cnnc1SCC(=O)N(C1CCCCC1)C1CCCCC1	13.9%
CCOP(=O)(OCC)C(Nc1ccccn1)c1ccccc1 (centres unmarked)	4.13%
N#Cc1c(-c2ccccc2Cl)cc(C2CC2)nc1N	9.39%
O=C(c1c(F)cccc1F)N1CCN(c2ncccn2)CC1	12.5%
Cn1c(N)c(C(=O)CSc2nnc(C3CC3)n2N)c(=O)n(C)c1=O	3.6%
Br.CCOC(=O)c1c(CSC(=N)N)n(-c2ccc(C)cc2)c2cc(Br)c(OC(C)=O)cc12	-36.7%
COc1ccc(NC(=O)ON=C2c3ccccc3-c3ccccc32)cc1	7.16%
CCCCCn1c(=O)[nH]c2cc(C(=O)N3CCN(CC)CC3)ccc2c1=O	13.6%
C/C(=N/NC(=O)C(O)(c1ccccc1)c1ccccc1)c1ccc([N+](=O)[O-])o1	-2.41%

SMILES	hERG current change (%, negative = inhibition) at 1uM
O=C(Cn1c(=O)oc2ccccc21)N1CCCC1	8.6%
N#CCSc1nnc(COc2cccc3ccccc23)n1-c1ccccc1	8.21%
CC(C)(C)NCCOc1ccc2ccccc2c1	14.6%
COc1cc(C2/C(=C(\O)c3ccc4c(c3)OCCO4)C(=O)C(=O)N2Cc2ccco2)cc(OC)c1OC (centres unmarked)	16.2%
CCc1ccccc1NC(=O)c1cnc2scc(C)n2c1=O	1.27%
COc1cc(C(=S)N2CCOCC2)cc(OC)c1OC(=O)c1cc([N+](=O)[O-])c(C)c([N+](=O)[O-])c1	11.9%
CC(C)CN(C(=O)COC(=O)c1cnc(Cl)c(Cl)c1)c1c(N)n(Cc2ccccc2)c(=O)[nH]c1=O	8.68%
COC(=O)C(NC(=O)c1ccc(Cl)cc1)(Nc1nc(C)cs1)C(F)(F)F (centres unmarked)	15.6%
COc1ccc(-c2csc(Nc3ccc(C)cn3)n2)cc1OC	0.435%
O=C(CN(Cc1ccco1)C(=O)CNS(=O)(=O)c1ccc(F)cc1)NCCc1ccccc1	-3.94%
CCN(CCn1cccn1)Cc1cn[nH]c1-c1ccc(OC)cc1F	-5.87%
CN(CC(=O)Nc1ccc(S(N)(=O)=O)cc1)Cc1ccccc1F	7.82%
CSCCC(NC(=O)c1ccco1)C(=O)NCC1CCCCC1 (centres unmarked)	10.5%
COc1ccc(NC(=O)CN(C)CC(=O)Nc2sc3c(c2C(N)=O)CCC3)cc1	-21.7%
CCCOc1ccc(OCCSc2ncccn2)cc1	7.67%
Cc1ccc(CNC(=O)C2CC(c3ccccc3[N+](=O)[O-])=NO2)cc1 (centres unmarked)	-15.3%
CCOc1ccc(-c2cn(-c3cccc(SC)c3)c(=O)[nH]2)cc1	2.84%
O=C(CSc1nc2[nH]c(=O)[nH]c(=O)c2s1)Nc1cccc(F)c1	15.4%
CC(=O)C1=C(C)NC2=C(C(=O)CC(C)(C)C2)C1C (centres unmarked)	29.4%
COc1cccc(NC(=O)c2ccc(S(=O)(=O)N(C)C)cc2)c1	0.787%
CCOC(=O)C1=C(CSc2nc(-c3ccccc3)ccc2C#N)OC(N)=C(C#N)C1c1cccnc1 (centres unmarked)	-6.76%
O=C(NC1CCCC1)C(c1ccccc1)N(Cc1cccnc1)C(=O)Cc1cccs1 (centres unmarked)	18.1%
Cc1c(CC(=O)NCC(=O)N[C@H](Cc2ccccc2)C(=O)O)c(=O)oc2cc(O)ccc12	5.36%

SMILES	hERG current change (%, negative = inhibition) at 1uM
O=C(O)CN1CCCC1=Nc1ccccc1	5.22%
CC(=O)N(C)c1ccc(NC(=S)NCC(C)C)cc1	8.74%
CCOC(=O)N1CCN(C(=O)c2cc(OC)c(OC)c(OC)c2)CC1	7.73%
Cc1ccccc1C(=O)Nc1cccc(NC(=O)c2ccccc2[N+](=O)[O-])c1	8.9%
COc1ccc(S(=O)(=O)N2CC(O)CC2C(=O)OCc2nc3sc(C)c(C)c3c(=O)[nH]2)cc1 (centres unmarked)	-2.46%
Cc1cc(C(=O)COC(=O)c2cccnc2Cl)c(C)n1-c1c(C)n(C)n(-c2ccccc2)c1=O	11.3%
O=C1CCN(Cc2ccccc2)CCN1[C@H](CO)Cc1ccccc1	11.2%
CC(NC(=O)C1CCC(C(=O)NC(C)c2ccccc2)CC1)c1ccccc1 (centres unmarked)	16.3%
CCOC(=O)c1c(NC(=O)C2COc3ccccc3O2)sc(C(C)=O)c1C (centres unmarked)	7.08%
O=C(Nc1ccc(S(=O)(=O)NCCc2ccccc2)cc1)c1ccco1	-1.28%
Cc1ccccc1Cn1c(=O)n(-c2ccccc2)c(=O)c2ccc(C(=O)NCc3ccco3)cc21	7.62%
CC(C)(C)NS(=O)(=O)c1ccc(NC(=O)C(Sc2ccccc2)c2ccccc2)cc1 (centres unmarked)	11.9%
CCC(C)C1(CC)C(=O)NC(=O)N=C1N (centres unmarked)	17.1%
Cc1cccnc1NC(=S)NC(=O)/C=C/c1ccco1	4.31%
CCC(C)[C@H]1COCCS(=O)(=O)N1Cc1ccc(Br)cc1 (some centres unmarked)	3.17%
CC1(C)CC(NC(=O)C2CCC(=O)N(C3CC3)C2)CC(C)(C)C1 (centres unmarked)	16.2%
CCN(CC(=O)Nc1c(F)cccc1F)C(=O)c1cc([N+](=O)[O-])ccc1N1CCCCC1	6.52%
C=CCN(C(=O)c1cccc(C(F)(F)F)c1)C1(C(=O)Nc2ccccc2)CCN(C(C)C)CC1	7.11%
COc1ccc(C(=O)c2c[nH]c(C(=O)NCCCN3CCOCC3)c2)cc1	8.18%
CCCCN(Cc1ccco1)S(=O)(=O)c1ccc(-c2ccc(=O)[nH]n2)s1	0.212%
